The campaign covered roughly 280,000 compounds. About 100 (0.036%) were called active. This list was built around the results that the source calls inconclusive (neither active nor inactive); the mix of calls is not that of the screen. The call rests on the fitted dose curve; in most records, active means well fitted inhibition curve with a large enough effect in the signal ratio, with a control signal flat (not every such curve was filed as active); inconclusive means small, poorly fitted or top-dose-only effect, or effect the other way, or a change in a side signal; inactive means no such curve, though single readings can be large or run the other way; the % refers to the signal ratio. Potencies of inconclusive entries are doubtful fits and often do not repeat. “Side channel” marks fits to a control or component signal instead of the main read-out.
Target: Muscleblind-like protein 1 (Homo sapiens) (UniProt Q9NR56)
Experiment: qHTS Assay for Inhibitors of MBNL1-poly(CUG) RNA binding
Conditions: TR-FRET MBNL1-His/biotin-(CUG)12 binding, 665/545 ratio; activity change, negative = inhibition: at 57.5 µM (top of the series)
Summary of the method: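 Compounds (final 92 nM to 58 uM) are added to His-tagged MBNL1 and biotin-(CUG)12, then terbium anti-His antibody and streptavidin-XL665 (5 nM final). After 60 min at room temperature, the 665/545 nm ratio is read.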
On the % scale 0 is the no-effect control and ±100 the full control effect; potency means the concentration at half of the fitted maximal effect; tags describe the fitted curve by direction and shape or compound fluorescence and quenching.

UniProt Q9NR56, sequence (Q9NR56 whole entry, looked up): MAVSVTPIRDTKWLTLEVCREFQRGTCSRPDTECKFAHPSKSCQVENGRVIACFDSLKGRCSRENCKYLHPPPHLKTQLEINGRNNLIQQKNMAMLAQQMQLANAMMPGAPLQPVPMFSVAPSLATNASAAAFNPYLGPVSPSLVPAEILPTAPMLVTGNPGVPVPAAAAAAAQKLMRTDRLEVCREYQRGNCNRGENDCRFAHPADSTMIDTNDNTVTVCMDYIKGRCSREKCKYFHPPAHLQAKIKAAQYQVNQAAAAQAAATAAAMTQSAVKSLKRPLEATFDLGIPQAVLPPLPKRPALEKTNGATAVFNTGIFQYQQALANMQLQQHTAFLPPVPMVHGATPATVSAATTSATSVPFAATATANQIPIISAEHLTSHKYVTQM

Compound | Potency | activity change, negative = inhibition
CCOc1ccc2[nH]c(=O)c(C(c3nnnn3Cc3ccco3)N3CCC(C)CC3)cc2c1 (centres undefined) | inconclusive: 8.91 µM [quencher, side channel, full curve] | –
N#Cc1ccc(/C=C/C(=O)c2cccnc2)cc1 | – | inactive: -0.847%
CC(=O)c1ccc(NS(=O)(=O)c2cc3c(cc2C)N(C)CCO3)cc1 | – | inactive: -2.32%
O=C(Nc1ccc([N+](=O)[O-])cc1)Nn1cnnc1 | inconclusive: 20 µM [quencher, side channel, partial curve] | –
O=[N+]([O-])c1cc(S(=O)(=O)N2CCCC2)ccc1NN=C1CCCC1 | inconclusive: 3.55 µM [quencher, side channel, partial curve, poor fit] | –
CCOc1cc(/C=C/c2ccc3cccc([N+](=O)[O-])c3n2)ccc1OCC(=O)N(C)C | inconclusive: 8.91 µM [quencher, side channel, partial curve] | –
O=C(CCCN1CCOC(c2ccccc2)C1)c1ccc(F)cc1 (centres undefined) | – | inactive: -6.79%
O=C1NC(c2ccccc2Br)=N/C1=C\c1ccco1 | inconclusive: 39.8 µM [quencher, side channel, partial curve] | –
CS(=O)(=O)c1ncc(Cl)c(C(=O)Nc2ccc3ccccc3c2)n1 | – | inactive: 11.6%
CC(=O)Nc1ccc(S(=O)(=O)Nc2nnc(CC(C)(C)C)s2)cc1 | inconclusive: 5.62 µM [quencher, side channel, partial curve] | –
O=C(Nc1ccc(C(=O)O)cc1)/C(=C\c1cccc([N+](=O)[O-])c1)NC(=O)c1ccc(Br)o1 | inconclusive: 20 µM [quencher, partial curve] | –
CCn1c(Cc2ccccc2)n[nH]c1=S | – | inactive: -7.19%
CCOc1ccc(CN2CCN(Cc3cc4c(cc3Cl)OCO4)CC2CCO)cc1 (centres undefined) | – | inactive: -5.5%
COc1ccc(-c2cn3cccnc3n2)cc1NC(=O)C(C)C | inconclusive: 15.8 µM [quencher, partial curve] | –
COC(=O)CSc1nc2cc(OC)ccc2cc1C#N | inconclusive: 39.8 µM [fluorescent, side channel, single point] | –
COc1ccc(/C=N/NC(=O)c2cccc([N+](=O)[O-])c2)cc1OS(=O)(=O)c1ccc(C)cc1 | – | inactive: -3.3%
CCn1cnc2c1c(=O)n(CC(=O)OC)c(=O)n2Cc1ccccc1 | – | inactive: -8.71%
O=[N+]([O-])c1ccc(NS(=O)(=O)c2cccc3cccnc23)cc1 | inconclusive: 28.2 µM [quencher, side channel, partial curve] | –
O=c1oc2ccccc2c(Nc2cccc3ccccc23)c1[N+](=O)[O-] | inconclusive: 25.1 µM [quencher, side channel, partial curve] | –

From PubChem BioAssay AID2675 (National Center for Advancing Translational Sciences (NCATS), 2010)
